In all, about 420,000 compounds went through this assay and about 64,000 (15%) were called active. The shares of active, inactive and inconclusive entries below differ from those in the screen. Calls follow the shape of the dose curve; as a rule, active = well fitted inhibition curve with a large enough effect; inconclusive = small, poorly fitted or top-dose-only effect; inactive = flat fitted curve, though single readings scatter. No potency is given beside an inconclusive call; the fits are too rough.
test: qHTS for Inhibitors of human tyrosyl-DNA phosphodiesterase 1 (TDP1): qHTS in cells in absence of CPT; conditions: DT40 Tdp1-/- hTDP1 cells, no CPT, ATP luminescence, 48 h; series mostly up to 46.2 µM; also: nearly all actives have a fitted effect of over 55% in size
Procedure, shortened: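 No-CPT arm: Tdp1-/-;hTDP1 DT40 cells (400/well) plus compounds, incubated ≥48 hr at 37 °C. Readout CellTiter-Glo luminescence.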
Potency is read from the fitted curve at half-maximal effect; tags tell the direction and shape of the fitted curve.

Structure (SMILES)	Potency
COc1ccc(NC(=O)Nc2cnccn2)c(OC)c1	inactive
Cc1nc2c3ccccc3nc(SCC(=O)N3CC(C)CC(C)C3)n2n1 (stereo not given)	inconclusive [inhibitor, partial curve, poor fit]
Cc1cc(C)nc(N/N=C/c2ccccc2Cl)n1	inactive
O=C(NCC1COc2ccccc2O1)c1ccc(Cl)cc1 (stereo not given)	inconclusive [inhibitor, single point]
CN(C(=O)c1ccc(=O)n(Cc2ccc(Cl)cc2)c1)c1ccccc1	inactive
CC(OC(=O)c1ccc(Br)o1)C(=O)NCC1CCCCC1 (stereo not given)	inconclusive [inhibitor, single point]
CCC(=O)Nc1cc(C(=O)NCc2ccc(C)cc2)ccc1S(=O)(=O)c1ccc(C)cc1	inconclusive [inhibitor, partial curve]
C[C@@H](OC(=O)c1[nH]cnc1C(=O)N1CCc2ccccc2C1)c1ccccc1	inconclusive [inhibitor, single point]
CCC(=O)c1cc(F)c(N2CCN(C(=O)c3ccco3)CC2)cc1C	active: 29.1 µM
CCOc1ccc(C(=O)N2CCCN(C(=O)c3ccc(OCC)cc3)CC2)cc1	inconclusive [inhibitor, full curve]
Cc1cc(C(=O)Nc2ccccc2C)n(-c2ccccc2)n1	inconclusive [inhibitor, single point]
CCc1ccc2[nH]c(=O)c(CN(CCN(C)C)C(=O)Nc3ccccc3)cc2c1	inconclusive [inhibitor, single point]
O=C(Nc1ccccc1N1CCN(C(=O)c2ccc(Cl)cc2)CC1)c1cc2ccccc2o1	inconclusive [inhibitor, single point]
Cn1c2c(c(=O)n(C)c1=O)C(c1ccc(O)cc1)Nc1ccccc1O2 (stereo not given)	inactive
CNS(=O)(=O)c1cccc(C(=O)NCC2(N3CCOCC3)CCCCC2)c1	inconclusive [inhibitor, single point]
O=C(N/N=C/c1cccc([N+](=O)[O-])c1)C1COc2ccccc2O1 (stereo not given)	inactive
O=C(Nc1ccncc1)c1c(F)c(F)c(F)c(F)c1F	inactive
CCCC1O[C@@H]2C[C@H]3[C@@H]4CCC5=CC(=O)C=C[C@]5(C)[C@H]4[C@@H](O)C[C@]3(C)[C@]2(C(=O)CO)O1 (stereo not given in full)	inconclusive [inhibitor, single point]
Cn1c(NC(=O)c2ccccc2F)c(-c2cccs2)c(=O)c2ccccc21	inactive
O=C(Nc1ccc(N2CCOCC2)cc1)c1cccc(S(=O)(=O)N2CCC(Cc3ccccc3)CC2)c1	inconclusive [inhibitor, full curve, poor fit]
CCc1cccc(C)c1Nc1c(-c2ccc(N(C)C)cc2)nc2ncccn12	active: 10.3 µM
Cc1cc(C)c2oc(C(=O)Nc3c(C(=O)c4ccc(F)cc4)oc4ccccc34)cc(=O)c2c1	inconclusive [inhibitor, single point]
COc1cc(C(=O)NC2CCN(C)CC2)ccc1Nc1ncc2c(n1)N(CCc1ccccc1)CCC(=O)N2C	active: 14.6 µM

Structure (SMILES)	Potency
CC(C)COC(=O)N1CCCCC1c1cc(C(=O)Nc2ccc3c(c2)OCO3)no1 (stereo not given)	inactive
CCCCNc1nnc(SCC(=O)c2c(N)n(CCC)c(=O)[nH]c2=O)s1	inactive
Cc1ccc(N(C(=O)c2snc(C(N)=O)c2N)C(CC(C)C)C(=O)NC2CCCC2)cc1 (stereo not given)	inconclusive [inhibitor, partial curve]
c1ccc(C2(CNc3ccccn3)CCCC2)cc1	inconclusive [inhibitor, single point]
Cc1cccc(OCc2ccc(-c3nc(C#N)c(N4CCN(c5ccccc5)CC4)o3)o2)c1	inconclusive [inhibitor, partial curve]
CCc1ccc(CNC(=O)Cc2ccc(NC(=O)C3=C(C)OCCS3)cc2)cc1	active: 1.3 µM
CC1CCC(NC(=O)C2(C)Cc3ccccc3C(=O)N2Cc2ccccc2Cl)CC1 (stereo not given)	active: 23.1 µM
O=C(NCc1ccncc1)C1CCCN(S(=O)(=O)c2ccc(Br)cc2)C1 (stereo not given)	inconclusive [inhibitor, single point]
Cc1ccc(S(=O)(=O)N(CC(=O)NCCSC2CCCCC2)c2ccccc2F)cc1	active: 18.4 µM
CCOC(=O)C(CC)n1nc(C)n2c(cc3sccc32)c1=O (stereo not given)	active: 11.6 µM
CC(Sc1nnc(-c2ccco2)n1-c1ccccc1)C(=O)NCC1CCCO1 (stereo not given)	inactive
CCOC(=O)c1c(NC(=O)COC(=O)c2nc(Cl)ccc2Cl)sc2c1CCC2	inactive
Cc1ccc(S(=O)(=O)NC(=O)COc2ccccc2C(N)=O)cc1	inactive
Cn1c2c(c(=O)n(C)c1=O)C(c1ccccc1Cl)CC(=O)N2 (stereo not given)	inconclusive [inhibitor, single point]
CC(C)N1CCc2c(sc(N)c2C#N)C1	inconclusive [inhibitor, single point]
O=C(NC1CCCCCC1)C(=S)NCCc1ccccc1	inconclusive [inhibitor, single point]
Cc1ccc(NC(=O)CCS(=O)(=O)c2ccc(Br)s2)cc1	inconclusive [inhibitor, partial curve]
CN(Cc1ccccc1)c1nc2c(c(=O)[nH]c(=O)n2C)n1CCCSc1ncccn1	inconclusive [inhibitor, single point]
CN(C(=O)CC1C(=O)NCCN1Cc1ccccc1F)C1CCOCC1 (stereo not given)	inactive
COc1ccc(Cc2c(-c3ccccc3)nc3cc(C)c(Br)c(C)n23)c(C)c1	inconclusive [inhibitor, partial curve]
O=C(CSc1nnnn1-c1ccc2c(c1)OCCO2)OC1CCCCC1	inconclusive [inhibitor, single point]
CCN(CC)c1ccc(NC(=O)Cn2c(C)c3cnn(-c4ccccc4)c(=O)c3c2C)c(C)c1	inconclusive [inhibitor, partial curve, poor fit]
